Experimental data reported in PubChem BioAssay (NCI).
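Test compounds were applied to cells in 96-well plates for 48 hours at 5 doses. GI50: concentration for 50% inhibition of growth. TGI is the concentration that stops growth completely.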

Tested on: NCI-H322M lung
Experiment: inhibition of tumour cell growth, NCI panel, 48 h

Row | SMILES | GI50 [µM] | TGI [µM]
1 | COc1ccc(C(=O)/C=C/c2ccc(OCc3ccccc3)c(OC)c2)cc1OC | 5.17 | > 100
2 | Cc1ccc(C(=O)CSc2nnc(-c3c[nH]c4ccccc34)n2-c2ccccc2)cc1 | 16.3 | 55.4
